In article PMC4336329 (PLoS ONE, 2015):
Out of some 310,000 compounds screened, about 2,200 (0.71%) showed an effect of 50% or more. The effect is printed as a negative number. This is one part of the list.

What follows are compounds tested against human ether-à-go-go-related gene (hERG) potassium channel (human, UniProt Q12809) (assay: primary screen, population patch clamp on CHO cells stably expressing hERG).
Sequence of human ether-à-go-go-related gene (hERG) potassium channel (Q12809 whole entry, looked up): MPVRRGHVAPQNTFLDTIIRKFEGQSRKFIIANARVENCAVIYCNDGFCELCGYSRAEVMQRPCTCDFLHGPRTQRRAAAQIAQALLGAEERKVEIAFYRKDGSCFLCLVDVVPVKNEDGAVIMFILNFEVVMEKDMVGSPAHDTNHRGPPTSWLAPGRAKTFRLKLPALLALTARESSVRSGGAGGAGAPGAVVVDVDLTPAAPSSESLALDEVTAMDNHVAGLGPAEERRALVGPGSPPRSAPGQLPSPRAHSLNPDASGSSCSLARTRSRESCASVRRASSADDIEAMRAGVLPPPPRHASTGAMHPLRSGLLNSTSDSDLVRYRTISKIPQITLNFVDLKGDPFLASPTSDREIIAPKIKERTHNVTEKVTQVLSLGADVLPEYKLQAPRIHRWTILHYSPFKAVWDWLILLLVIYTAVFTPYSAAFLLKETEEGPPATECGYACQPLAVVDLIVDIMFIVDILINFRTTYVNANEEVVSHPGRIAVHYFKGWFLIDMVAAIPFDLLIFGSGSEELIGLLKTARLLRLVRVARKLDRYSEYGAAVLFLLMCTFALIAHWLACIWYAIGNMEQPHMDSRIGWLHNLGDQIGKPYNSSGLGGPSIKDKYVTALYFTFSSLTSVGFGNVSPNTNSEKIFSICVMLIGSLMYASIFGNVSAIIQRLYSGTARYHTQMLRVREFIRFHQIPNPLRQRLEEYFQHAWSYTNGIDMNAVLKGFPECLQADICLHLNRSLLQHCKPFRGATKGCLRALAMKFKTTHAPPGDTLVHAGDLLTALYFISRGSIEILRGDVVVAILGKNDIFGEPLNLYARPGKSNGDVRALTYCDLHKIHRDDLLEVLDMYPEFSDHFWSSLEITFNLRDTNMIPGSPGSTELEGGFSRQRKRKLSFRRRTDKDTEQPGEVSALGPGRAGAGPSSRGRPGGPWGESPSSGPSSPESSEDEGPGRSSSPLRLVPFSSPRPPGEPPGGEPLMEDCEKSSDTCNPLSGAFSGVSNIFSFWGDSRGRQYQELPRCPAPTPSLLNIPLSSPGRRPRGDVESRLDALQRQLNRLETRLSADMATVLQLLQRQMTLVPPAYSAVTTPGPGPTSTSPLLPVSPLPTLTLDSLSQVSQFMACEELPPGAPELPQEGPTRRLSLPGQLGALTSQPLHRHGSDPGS

Going from `CC(C)c1ccc(NC(=O)N2CCN(S(=O)(=O)c3ccccc3)CC2)cc1` to `NS(=O)(=O)c1ccc(NC(=S)N2CCN(Cc3ccc(Cl)c(Cl)c3)CC2)cc1`, the “hERG current change (%, negative = inhibition) at 1uM” value rises from 4.91% to 9.4%.

First: Cn1nnnc1SCC(=O)Nc1ccc(C(=O)N2CCN(Cc3ccccc3F)CC2)cc1
Second: CCOC(=O)c1cccc(NC(=O)CSc2nnc(-c3ccoc3C)n2CCOC)c1
The “hERG current change (%, negative = inhibition) at 1uM” value of the first is higher: 18.3% for the first, 4.53% for the second.

Compared with `C#CCOCCOCCOCCNc1nc(N2CCN(C(=O)[C@H]([C@@H](C)CC)n3cc([C@@H](N)Cc4ccc(O)cc4)nn3)CC2)nc(N2CCN(C(=O)[C@H](CCCCN)n3cc([C@@H](N)C(C)CC)nn3)CC2)n1.Cl` (stereo partly shown), `O=C(c1ccc(Cl)c([N+](=O)[O-])c1)N1CCN(C(=O)c2ccco2)CC1` is lower in “hERG current change (%, negative = inhibition) at 1uM” value: 8.74% for the first, -19.5% for the second.

Going from `Cc1cnc(C(=O)N2CCc3c([nH]c4ccccc34)C2c2ccc(F)cc2)cn1` (stereo not shown) to `CC(=O)Oc1ccc2c(C)cc(=O)oc2c1C(=O)c1ccccc1`, the “hERG current change (%, negative = inhibition) at 1uM” value rises from -1.15% to 17%.

Compared with `CCN(C(=S)Nc1cccc(C)c1)c1ccccc1`, `O=C1O/C(=C/c2ccccc2)N=C1c1ccccc1` is lower in “hERG current change (%, negative = inhibition) at 1uM” value: 23.9% for the first, 10.1% for the second.

First: Cc1cc(-c2cc(-c3ccc(Cl)cc3)on2)nc(NC2CCCC2)n1
Second: COc1ccc(-c2[nH]ncc2/C=C(/C#N)C(=O)NC2CCCCC2)cc1
The “hERG current change (%, negative = inhibition) at 1uM” value of the first is lower: 5.86% for the first, 6.67% for the second.

First: CCn1cc(SCC(=O)N2CCOCC2)c2ccccc21
Second: CCC/C(O)=C1\C(=O)CC(C)(C)CC1=Nc1ccccc1OC
The “hERG current change (%, negative = inhibition) at 1uM” value of the first is higher: 12.9% for the first, -2.05% for the second.

Going from `COc1cc(/C=C(\NC(C)=O)C(=O)NC(C)(C)CC(C)(C)C)ccc1OC(C)=O` to `O=C(O)Cc1ccc(S(=O)(=O)Nc2ccccc2C(=O)O)cc1`, the “hERG current change (%, negative = inhibition) at 1uM” value rises from 2.58% to 7.9%.

First: COC(=O)CN1C(=O)[C@H]2[C@@H](/C=C/c3ccccc3)N3C(=O)CN(Cc4ccccc4)C(=O)[C@@]3(Cc3ccccc3)[C@H]2C1=O
Second: CN1CC[C@]23c4ccccc4N[C@H]1[C@]21CCN(C)[C@H]3Nc2ccccc21
The “hERG current change (%, negative = inhibition) at 1uM” value of the first is lower: 7.66% for the first, 11.4% for the second.

Going from `Nc1cc2nc3ccccc3nc2cc1N` to `Oc1csc(Cc2nc(-c3ccc(Br)cc3)cs2)n1`, the “hERG current change (%, negative = inhibition) at 1uM” value falls from 16.5% to 12.2%.

Compared with `CCN(C(=O)COC(=O)CCS(=O)(=O)c1ccc(C)cc1)C1CCS(=O)(=O)C1` (stereo not shown), `O=C1CC2C(=O)NCCN2C(=NC(=O)c2ccc(Cl)cc2)N1` (stereo not shown) is higher in “hERG current change (%, negative = inhibition) at 1uM” value: 9% for the first, 10.3% for the second.
